Measured values: publication PMC7442787
These are yes or no findings as the source states them, for the method shown. In cells and extracts the contact can be indirect. Some binding calls cover weakened binding; strength is not graded here. Where a sequence is shown, tags or fusion partners need not be part of it. Values belong to the molecule of their own block, whether it stands above or below them.

Amino acid sequences for entries named in this document (tags omitted).
UniProt Q61602: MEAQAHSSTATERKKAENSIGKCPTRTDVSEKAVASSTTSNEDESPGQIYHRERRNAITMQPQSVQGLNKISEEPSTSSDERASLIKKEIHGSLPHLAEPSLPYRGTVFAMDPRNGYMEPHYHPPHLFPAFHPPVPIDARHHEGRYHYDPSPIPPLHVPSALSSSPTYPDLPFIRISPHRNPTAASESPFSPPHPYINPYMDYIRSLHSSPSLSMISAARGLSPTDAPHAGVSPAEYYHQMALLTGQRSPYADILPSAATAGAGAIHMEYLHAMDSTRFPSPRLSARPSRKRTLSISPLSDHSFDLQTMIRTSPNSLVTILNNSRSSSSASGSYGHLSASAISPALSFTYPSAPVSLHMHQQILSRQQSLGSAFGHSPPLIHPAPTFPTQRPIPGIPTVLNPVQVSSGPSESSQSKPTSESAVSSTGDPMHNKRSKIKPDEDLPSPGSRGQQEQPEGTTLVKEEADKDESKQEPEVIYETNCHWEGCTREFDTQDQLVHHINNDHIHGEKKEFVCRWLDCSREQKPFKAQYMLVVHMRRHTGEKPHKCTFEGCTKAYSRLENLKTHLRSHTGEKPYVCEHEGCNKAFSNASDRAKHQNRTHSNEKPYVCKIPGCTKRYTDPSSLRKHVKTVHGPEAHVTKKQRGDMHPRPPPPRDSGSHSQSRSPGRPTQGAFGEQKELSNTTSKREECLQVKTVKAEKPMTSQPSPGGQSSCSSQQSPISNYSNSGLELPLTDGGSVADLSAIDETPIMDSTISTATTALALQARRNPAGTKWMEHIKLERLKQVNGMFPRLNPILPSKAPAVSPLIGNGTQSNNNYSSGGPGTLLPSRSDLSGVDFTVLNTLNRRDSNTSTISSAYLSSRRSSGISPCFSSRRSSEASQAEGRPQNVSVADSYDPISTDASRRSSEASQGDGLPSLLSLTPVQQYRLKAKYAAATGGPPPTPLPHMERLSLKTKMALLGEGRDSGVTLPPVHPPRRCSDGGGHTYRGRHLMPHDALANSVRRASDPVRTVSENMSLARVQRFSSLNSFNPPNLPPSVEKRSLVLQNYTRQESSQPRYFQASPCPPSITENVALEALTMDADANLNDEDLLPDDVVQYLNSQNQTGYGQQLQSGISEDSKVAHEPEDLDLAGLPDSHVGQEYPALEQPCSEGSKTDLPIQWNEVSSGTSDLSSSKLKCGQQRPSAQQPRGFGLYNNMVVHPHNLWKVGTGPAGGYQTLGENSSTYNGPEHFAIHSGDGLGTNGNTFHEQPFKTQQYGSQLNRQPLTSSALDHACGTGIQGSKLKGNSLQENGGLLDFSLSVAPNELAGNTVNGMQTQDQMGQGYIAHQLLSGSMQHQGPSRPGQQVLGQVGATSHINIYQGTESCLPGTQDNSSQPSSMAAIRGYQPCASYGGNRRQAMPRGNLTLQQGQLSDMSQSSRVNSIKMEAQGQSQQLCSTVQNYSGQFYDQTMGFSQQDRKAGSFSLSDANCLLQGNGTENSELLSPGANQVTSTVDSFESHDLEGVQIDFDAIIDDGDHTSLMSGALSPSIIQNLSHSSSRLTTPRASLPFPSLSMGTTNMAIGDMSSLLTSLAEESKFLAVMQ

Legend:
[1] = biological target: T1, Suppressor of fused (Sufu), endogenous (mouse (endogenous in NIH3T3 and MEFs)) (UniProt Q9Z0P7); test: co-IP; endogenous Sufu immunoprecipitated with anti-Sufu from NIH3T3 cells treated with Shh-CM; Western blot with anti-Gli3 and anti-Sufu
T1 sequence: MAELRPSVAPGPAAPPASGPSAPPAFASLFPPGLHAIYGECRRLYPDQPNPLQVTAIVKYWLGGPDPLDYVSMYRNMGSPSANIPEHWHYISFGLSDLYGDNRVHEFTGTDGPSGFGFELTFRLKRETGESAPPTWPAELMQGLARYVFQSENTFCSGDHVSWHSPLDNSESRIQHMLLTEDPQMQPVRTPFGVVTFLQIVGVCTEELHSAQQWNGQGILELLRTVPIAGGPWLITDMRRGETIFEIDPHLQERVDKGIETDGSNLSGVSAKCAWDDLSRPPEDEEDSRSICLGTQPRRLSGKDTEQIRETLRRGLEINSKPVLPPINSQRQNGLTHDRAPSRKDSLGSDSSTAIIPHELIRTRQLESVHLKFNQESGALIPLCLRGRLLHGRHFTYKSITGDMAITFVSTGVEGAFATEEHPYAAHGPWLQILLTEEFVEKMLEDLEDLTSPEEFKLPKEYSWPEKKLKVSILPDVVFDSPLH

Flag-Ppp4r2 [2] = biological target: T2, Flag-Ppp4r2 (UniProt Q0VGB7); test: co-IP; Sufu deletion fragments co-expressed with Ppp4r2 (Supplementary Fig. S1B, S1C); the text does not name the method, cells or which partner was precipitated
T2 sequence: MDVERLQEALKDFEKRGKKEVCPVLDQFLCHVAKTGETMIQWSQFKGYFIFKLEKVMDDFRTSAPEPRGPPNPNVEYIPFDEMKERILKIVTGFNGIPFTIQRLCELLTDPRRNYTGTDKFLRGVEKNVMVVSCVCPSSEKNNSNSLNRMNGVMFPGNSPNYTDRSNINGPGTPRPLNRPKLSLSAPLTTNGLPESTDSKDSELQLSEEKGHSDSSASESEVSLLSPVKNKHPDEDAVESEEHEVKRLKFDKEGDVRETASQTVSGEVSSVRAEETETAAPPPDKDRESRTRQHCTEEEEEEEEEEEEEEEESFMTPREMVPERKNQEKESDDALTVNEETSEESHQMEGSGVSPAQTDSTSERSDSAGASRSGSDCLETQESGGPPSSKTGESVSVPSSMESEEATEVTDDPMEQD

Flag-Ppp4r2 [3] = biological target: T2, Flag-Ppp4r2; test: co-IP; lysates of HEK293 cells expressing Flag-Ppp4r2 and Sufu-Myc; Flag-Ppp4r2 immunoprecipitated, Sufu-Myc detected by Western blot; RIPA buffer, 4 °C overnight, magnetic beads
[4] = biological target: T1, Suppressor of fused (Sufu), endogenous (mouse (endogenous in NIH3T3 and MEFs)); test: co-IP; endogenous Sufu immunoprecipitated from WT-MEF lysates; endogenous Ppp4r2 detected by Western blot; RIPA buffer, 4 °C overnight, magnetic beads
Flag-Sufu = biological target: T3, Flag-Sufu (UniProt Q9Z0P7); test: proximity ligation; MEFs transfected with Flag-Sufu, with or without ShhN-CM for 24 h; fixed, mouse anti-Flag and rabbit anti-Ppp4r2, Duolink in situ detection
T3 sequence: T1 sequence

- binding [1]: binds
Molecule: Gli3, endogenous (from UniProt Q61602 1-1583)

- binding (Flag-Ppp4r2 [3]): binds
B3: Sufu-Myc (protein, UniProt Q9Z0P7 1-484)
chain: T1 sequence

- binding (Flag-Ppp4r2 [2]): binds
B4: Sufu N-terminal deletion fragment (1–267 a.a.) (domain or fragment, UniProt Q9Z0P7 1-267)
chain: MAELRPSVAPGPAAPPASGPSAPPAFASLFPPGLHAIYGECRRLYPDQPNPLQVTAIVKYWLGGPDPLDYVSMYRNMGSPSANIPEHWHYISFGLSDLYGDNRVHEFTGTDGPSGFGFELTFRLKRETGESAPPTWPAELMQGLARYVFQSENTFCSGDHVSWHSPLDNSESRIQHMLLTEDPQMQPVRTPFGVVTFLQIVGVCTEELHSAQQWNGQGILELLRTVPIAGGPWLITDMRRGETIFEIDPHLQERVDKGIETDGSNLS

Continued, molecule first:

B1: Sufu middle region deletion fragment (250–350 a.a.) (domain or fragment, UniProt Q9Z0P7 250-350)
chain: HLQERVDKGIETDGSNLSGVSAKCAWDDLSRPPEDEEDSRSICLGTQPRRLSGKDTEQIRETLRRGLEINSKPVLPPINSQRQNGLTHDRAPSRKDSLGSD
- binding (Flag-Ppp4r2 [2]): no binding

B2: Sufu C-terminal deletion fragment (331–483 a.a.) (domain or fragment, UniProt Q9Z0P7 331-483)
chain: RQNGLTHDRAPSRKDSLGSDSSTAIIPHELIRTRQLESVHLKFNQESGALIPLCLRGRLLHGRHFTYKSITGDMAITFVSTGVEGAFATEEHPYAAHGPWLQILLTEEFVEKMLEDLEDLTSPEEFKLPKEYSWPEKKLKVSILPDVVFDSPL
- binding (Flag-Ppp4r2 [2]): binds

B5: Protein phosphatase 4 regulatory subunit 2 (Ppp4r2), endogenous (protein, UniProt Q0VGB7 1-417)
chain: T2 sequence
- binding [4]: binds
- binding (Flag-Sufu): binds
